The record followed here is the RNAGym collection of RNA variant scans (doi:10.7554/elife.90254).

Read counts are not given, so values of variants with three or more changes are uncertain.

The chains are these.
B1: LINE1-mini (parent)
chain: GGCAGAGCUCAACACAGCGUGGCAAAGUGGCUGUGGCUAGACUGCC

In this data set the parent is B1. As to the kind of experiment: self-cleavage, relative activity (ratio to wild type); higher = more cleavage; in vitro, sequencing; the parent is a self-cleaving ribozyme.
With A6C C13U U28A, the self-cleavage came to 0.09.
On to C3A G5U A26C U43A, for which the self-cleavage was determined as 0.09.
As for C3G G27A U43G C45G, the self-cleavage was 0.02.
For C8G A12C C18A C23A G35A C37G, the self-cleavage is 0.
Consider C3U U9G U32A, for which the self-cleavage came to 0.05.
Turning to C10G A11C A14C G17A, the self-cleavage worked out at 0.07.
Then A4C G5C C13A C18U A26U U38G, with 0.04.
Consider C18U G33C A41G, for which the self-cleavage amounted to 0.03.
The same measure for C8A G27A U43G G44A: 0.25; for G2A A24U A25U U34G A39C: 0.11.
G2C G7C A25C A39G: the self-cleavage came out at 0.16.
Then A12C G19A G29U, with 0.02; and C23G A24U G40U C45G, with 0.01.
With G5U U28G G33A C45G, the self-cleavage stood at 0.01.
Take G7U C13A C18G G21A G30U: the self-cleavage was 0.05.
With G33C G44C C45U, the self-cleavage amounted to 0.02.
The same measure for C10G G29A U34C G35C: 0.03; for C13G C18G U32G: 0.03; for G1C A4G C15U C37A G40A: 0.28.
The same measure for C8U C15U G29C A39G: 0.02.
C10G C23U U32A: the self-cleavage was 0.01.
In the case of C3G C13G A24C G29C, the self-cleavage is 0.06.
The same measure for A4C C18A A24U U43C G44A C45U: 0.01.
Then C3U A26C G30U, with 0.13; and U20C G29U G30U, with 0.49.
As for C8A A11C A24G G36A, the self-cleavage was 0.05.
Then C3U A4U C13A C15G G19A G36C G44C, with 0.01.
Then C3A G7C C31A U32G, with 0.03.
The same measure for C8G C13U U38A: 0.02; for G7U G27U G30U: 0.07; for G19U A39G G40C: 0.08.
Regarding C13A A24U G27U G30A U32A C42A, the self-cleavage is 0.01.
The same measure for A4U C10A G19U A39U: 0.02.
Regarding C10G A14G G33U G35A, the self-cleavage amounted to 0.02.
Then A6U G21C C23U G29U, with 0.35; and C10A C18U C23U, with 0.06.
Then A4U G7A G40U C42U, with 0.2; and U28C G30A C45U, with 0.85.
The same measure for C3A U9A A14U U28A U32G: 0.11; for A6U C8U C13G C37G A39G C46G: 0.09; for A6U G17A G29A: 0.44.
Take G2U C15A G19A A24U A26U U38C: the self-cleavage was found to be 0.01.
Then A16U U20C G33A U34G C42A, with 0.
The same measure for U9G G21U G30C: 0.01.
Then A16U G27U C42G, with 0.04; and G7C G17U C37G, with 0.
As to A4G G27C G35U, the self-cleavage amounted to 0.15.
Then U20A C23A C45G, with 0.33; and U9G A14G G30C U34C C46U, with 0.07; and G22A G27U G35U, with 0.28.
C15U U34C C42G: the self-cleavage came out at 0.18.
The same measure for A4C A6U C10U G22C U38G: 0.02.
As to U9A G21C C31U U38G G44U, the self-cleavage is 0.
The same measure for A4C G19U G36C: 0.16; for G5A C8A A12U U38A C46G: 0.08.
The same measure for G33U G35C G36C: 0.04; for G21A A39G G44A: 0.02; for U9A U34A G36A A39G: 0.26.
The same measure for A6C G35U C46A: 0.02; for C18A C42G C46U: 0.03; for G2C G19A U20A A26U G30A G36U: 0.24.
Turning to G1A G22C A41U, the self-cleavage came out at 0.92.
A16G C23U G33A: the self-cleavage amounted to 0.02.
Consider G5C A24U G35A A41G, for which the self-cleavage was determined as 0.03.
Take G1U C31G G40U: the self-cleavage is 0.02.
The same measure for A6C C13A U34C: 0.06; for A24G C31A G40U C45U: 0.04.
Then A14U G17C A24G G27C, with 0.19.
For A11G A14U A25C U28C, the self-cleavage was determined as 0.05.
Regarding C8U A12C A25U, the self-cleavage stood at 0.02.
In the case of A11C A26G G30U G36U G40C G44U, the self-cleavage was determined as 0.
Then G5U C13U G30U C42A, with 0.19; and G21C G29C G33U C45A, with 0.14.
The same measure for G19A A41U C42U: 0.06; for G21U G30C C31A: 0.13; for C8A C13A C18G U20C: 0.13.
For A11U A25G G27U C45U, the self-cleavage was determined as 0.
Then A4G C8U G21C A39C, with 0.04; and G1U C8A C10U C15U G40U, with 0.04.
The same measure for U9G A11U U20A C42U: 0.02.
The same measure for G2C U20A U28C G29C: 0.09; for G1C A4C C13U C23U A39U: 0.02.
G21C U43A C46U: the self-cleavage came out at 0.02.
Then G2C C8G C13G A14C G30A C37A, with 0.55; and G7U A14G U20C G22A, with 0.04.
For the variant A6C C15G G19A C37G G44U, the self-cleavage turned out to be 0.01.
The same measure for G2U U9C G36A A41U: 0.01; for A11C A14C C23G G33C: 0.
As to A4G A16G G27A U28G G40U, the self-cleavage stood at 0.02.
Then G5A C13U U28A, with 0.1; and A11G G40U C45G, with 0.01; and C3G G5U C8A G22U C46U, with 0.15.
As to C8U U9A C15U C18U G29C, the self-cleavage is 0.03.
The same measure for A6G C15G C18G C23G: 0.27; for G5U U9G C13U C15G A16U: 0.14.
The same measure for G7C G36A U38G: 0.02; for A12U G29C A41C G44C C45G: 0.06.
The same measure for G1A G2A A25C U28C U34C: 0.56; for G21A G22A G30U A41C: 0.05; for C31G C37A U43A: 0.07.
Turning to C10A A25C C45G, the self-cleavage was found to be 0.05.
As to A4G G21A G22C G40A, the self-cleavage worked out at 0.06.
As for A4C G5U A6C, the self-cleavage is 0.01.
Consider A11G G19A U20C G36U, for which the self-cleavage was found to be 0.
G21U G27A C37A: the self-cleavage is 0.4.
Turning to G2A C37A C45U, the self-cleavage was determined as 0.09.
As to G35U U38C C46U, the self-cleavage stood at 0.2.
The same measure for G5C U9G A14G G22A G30U: 0.02; for A12G C18U U20G A26G C37U: 0.05; for C10U A11G G22C A41G: 0.
Then G2C G5A C10A G17U U34C, with 0.01; and U9A G17U C18U A26G, with 0.03; and A6G G21A U34G, with 0.03.
With G7A U9A C37A, the self-cleavage came to 0.05.
A6C G7A A16G U20C A26U C46A: the self-cleavage was 0.04.
G19A G22U G35C C45U: the self-cleavage was 0.31.
The same measure for G5U U9A C18A: 0.11; for A6U U9A C23A U34C: 0.07; for G7U G19C G36A: 0.12.
In the case of C23U G35A G36A U43G C45U, the self-cleavage is 0.23.
Take G5A C10A C23U G44A: the self-cleavage worked out at 0.02.
Take G19C A26U C37U: the self-cleavage turned out to be 0.01.
The same measure for G2C A14C A16G A39U: 0.01.
Turning to G7A U20C G35A C42A, the self-cleavage amounted to 0.16.
With C3G A6U A11C C45U C46G, the self-cleavage was found to be 0.06.
As to A4U G5U C8A A25G, the self-cleavage came out at 0.36.
Then A4C C31G G33U U34C G36U, with 0.07; and A11C U20G C31G U34C G44U, with 0.
As to C3A A25U G36U, the self-cleavage worked out at 0.45.
Then A4C C10A C13G A16G G17U, with 0.02; and G5U G21C A41G, with 0.06; and C15A A16G C23A A39G, with 0.02.
Turning to A6C C8A G21C, the self-cleavage is 0.18.
Turning to C3U G29A U38A G40A C46A, the self-cleavage is 0.13.
Then G5C C8G A25C U32G, with 0.04; and C23G U28G C46U, with 0.03; and G2U C10A C37U, with 0.02.
The same measure for A4C G5A C15A G19C G40C C46A: 0.19.
For the variant A4G G7C C8U G22C A26C G40A G44U, the self-cleavage is 0.56.
The same measure for A6C G29C G35U G44A: 0.03.
The same measure for U9C C18A G30A C46A: 0.02; for G2C C15G C18A U20C A25G C42U: 0.01.
The same measure for C3G A11G A25C G36A: 0.12; for G5A C10A G22U G40A: 0.
In the case of C8G A12U G21A A26C, the self-cleavage came to 0.18.
Then C18U C23A G44U, with 0.02; and U9C A11U A25C, with 0.01; and G19C G22A C46U, with 0.5.
The same measure for G2U A11U C13A G19C A24C: 0; for C13G G22A U28G C37A: 0.02; for C8G U32A C42A: 0.04.
G21C C31G U34A C46U: the self-cleavage turned out to be 0.01.
The same measure for G2A U9A A14U G22A U38G: 0.46.
As to A4G G21U A25C C42A, the self-cleavage worked out at 0.07.
Then G1U C8A G27U A39C, with 0.07.
The same measure for G5U G29A C37A: 0.01.
Then A4C G17A U34C, with 0.1; and A6U G29C C42U, with 0.05.
For the variant C3U G19A G21U, the self-cleavage is 0.18.
Then A11G G36U U43A, with 0.01.
Turning to A6G C13U A24G A39U C45A, the self-cleavage came out at 0.03.
Then A4U A26C G36C, with 1.11; and G2C A4U C10A C23U U38C, with 0.02; and A26U U32A G35C, with 0.05.
Regarding A11U G17A G27A, the self-cleavage was found to be 0.08.
As for G1C C10U A26C U32C U34G C46U, the self-cleavage turned out to be 0.01.
Turning to A26C C37A A39C C46A, the self-cleavage was 0.02.
